The full ranking holds about 110,000 compounds; the median of “z-score” is about -0.1, and the highest 2% start at about 2. The list shows a part of the results.
Molecular target: Metabotropic glutamate receptor 8 (Rattus norvegicus) (UniProt P70579)
Assay: rat mGluR8 modulators via GIRK flux, primary screen, cell-based, thallium flux, HTS (AID 488969)
Details: HEK293 rat mGluR8, GIRK (G protein-gated inwardly rectifying potassium channel) thallium flux, FluoZin2; at 10 µM; stronger effect = higher value; submaximal glutamate (EC20) added with thallium

UniProt P70579, sequence (P70579 whole entry, looked up): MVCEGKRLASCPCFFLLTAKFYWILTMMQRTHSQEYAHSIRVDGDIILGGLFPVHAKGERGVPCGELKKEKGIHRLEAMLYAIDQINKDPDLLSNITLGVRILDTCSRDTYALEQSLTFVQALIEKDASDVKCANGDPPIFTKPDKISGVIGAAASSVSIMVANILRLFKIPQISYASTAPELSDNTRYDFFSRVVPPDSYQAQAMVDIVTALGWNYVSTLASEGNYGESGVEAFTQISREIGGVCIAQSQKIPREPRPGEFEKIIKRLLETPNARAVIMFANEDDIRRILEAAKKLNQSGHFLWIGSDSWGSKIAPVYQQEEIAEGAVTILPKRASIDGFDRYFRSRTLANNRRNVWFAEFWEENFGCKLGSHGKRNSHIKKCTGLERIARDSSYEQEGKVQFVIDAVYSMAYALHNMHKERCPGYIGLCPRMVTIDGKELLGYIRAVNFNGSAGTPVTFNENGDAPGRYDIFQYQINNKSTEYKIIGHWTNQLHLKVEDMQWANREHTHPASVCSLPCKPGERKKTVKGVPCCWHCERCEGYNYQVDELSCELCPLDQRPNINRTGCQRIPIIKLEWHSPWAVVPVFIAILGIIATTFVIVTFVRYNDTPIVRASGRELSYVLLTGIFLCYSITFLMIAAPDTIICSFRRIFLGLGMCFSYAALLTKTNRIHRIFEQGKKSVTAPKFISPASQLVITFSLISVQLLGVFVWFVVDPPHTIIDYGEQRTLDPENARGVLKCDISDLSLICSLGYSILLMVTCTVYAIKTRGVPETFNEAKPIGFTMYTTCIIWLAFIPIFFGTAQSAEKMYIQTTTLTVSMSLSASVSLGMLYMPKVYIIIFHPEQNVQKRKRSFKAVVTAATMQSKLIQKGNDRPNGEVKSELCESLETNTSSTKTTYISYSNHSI

Compared with `Cc1cccc(-c2cc3nc(C)cc(NCCCN(C)C)n3n2)c1`, `CCC(CC)C(=O)Nc1cccc(-c2nc3ccccc3o2)c1` is lower in z-score: 0.996 for the first, -0.334 for the second.

First: Cc1ccc(C2CC(=O)c3cnc(NC(=O)c4ccco4)nc3C2)cc1 (stereo unspecified)
Second: O=C(COc1ccc(OCc2ccccc2)cc1)NC1CCOC1=O (stereo unspecified)
The z-score of the first is lower: -0.398 for the first, -0.0067 for the second.

Compared with `O=C(CSc1nnc2sc3ccccc3n12)NCc1ccco1`, `CCn1c(SCC(=O)N2CCCc3ccccc32)nnc1-c1cccs1` is lower in z-score: 0.295 for the first, 0.11 for the second.

First: CCOC(=O)c1cc2occc2n1CC(=O)NC1CCCCC1C (stereo unspecified)
Second: O=C(CN1C(=O)CSC1=O)NC1CCCCC1
The z-score of the first is lower: -0.179 for the first, 0.606 for the second.

Compared with `Oc1ccc(N2CCN(C(c3ccccn3)c3nnnn3C3CCCC3)CC2)cc1` (stereo unspecified), `Cc1cccc(C(=O)NC2CC3CCCC(C2)N3S(=O)(=O)c2ccccc2)c1` (stereo unspecified) is higher in z-score: -0.298 for the first, 0.082 for the second.

Going from `CC(=O)NCCOC(=O)Nc1ccncc1` to `CCCC(CCC(=O)Nc1ccc(C(=O)OC)cc1)C(=O)O` (stereo unspecified), the z-score rises from 0.0114 to 0.661.

First: CC(=O)C1=C(O)C(=O)N(CCCO)C1c1ccccc1 (stereo unspecified)
Second: CC(C)Cn1c(N)c(C(=O)CSc2ccccc2)c(=O)n(C)c1=O
The z-score of the first is higher: -0.134 for the first, -0.216 for the second.

Compared with `CC(C)NC(=O)Cn1c(=O)cnc2ccccc21`, `CCc1ccc(NC(=O)CCn2ccnc2C)cc1` is higher in z-score: 0.171 for the first, 0.306 for the second.

Compared with `C/C(=N/NC(=O)CN1CCN(S(=O)(=O)c2ccc(Br)cc2)CC1)c1ccco1`, `O=C(NCc1cccs1)C1CCN(S(=O)(=O)c2cccs2)CC1` is lower in z-score: 0.0136 for the first, -0.232 for the second.

Compared with `CN(CC(=O)Nc1ccc(C#N)cc1)Cc1ccc(Cl)c(Cl)c1`, `CN(C)S(=O)(=O)c1ccc(C(=O)Nc2ccc(Cl)cc2)cc1` is higher in z-score: 0.0228 for the first, 0.118 for the second.

First: CC1(C(=O)O)CCC(C(=O)NC2CCCCC2)C1(C)C (stereo unspecified)
Second: CC1(C(=O)NC2CCCC2)CCC(=O)N1CCC1=CCCCC1 (stereo unspecified)
The z-score of the first is lower: -0.238 for the first, 0.294 for the second.

Going from `CC12CCC(C(=O)N3CCc4ccccc43)(CC1=O)C2(C)C` (stereo unspecified) to `CN(c1ccc(C(=O)Nc2ccccc2C(=O)N2CCCC2)cc1)S(C)(=O)=O`, the z-score falls from 0.155 to -0.377.

First: CCc1ccc(C(C)NC(=O)/C=C/c2ccc(Br)cc2)cc1 (stereo unspecified)
Second: Cc1noc(C)c1S(=O)(=O)N(CC(=O)N1CCn2c1nc1ccccc12)c1ccc(C(C)C)cc1
The z-score of the first is higher: -0.0914 for the first, -0.204 for the second.

Going from `Cc1cc2c(c(=O)o1)C(C1C=CCCC1)C(C#N)=C(N)O2` (stereo unspecified) to `CCCOC(=O)c1[nH]c2c(c1C)C(=O)CC(c1cccs1)C2` (stereo unspecified), the z-score rises from -0.151 to -0.0689.

Going from `COc1ccc(S(=O)(=O)N(CC(=O)N/N=C/c2cccs2)c2cc(C)cc(C)c2)cc1OC` to `Cc1[nH]n(-c2cccc3ccccc23)c(=O)c1/C=N/NC(=O)c1cccc([N+](=O)[O-])c1`, the z-score falls from 0.0274 to -0.742.

For `CSc1nnc2c(n1)OC=Nc1ccccc1-2`, the z-score was -0.139.
